Data: ChEMBL document CHEMBL1961873, “Compounds: GSK PKIS; Assays: Nanosyn kinase panel” (2012)
For some of these results: What follows is the remainder of the data, with few or none of the strong results. The entries are a selection whose mix differs from that of the whole data set.

Columns and labels:
[1] = system: Epidermal growth factor receptor (Homo sapiens), P00533 [T790M]; settings: at 1 µM
[2] = system: Epidermal growth factor receptor (Homo sapiens), P00533 [L858R,T790M]; settings: at 0.1 µM
[3] = system: Epidermal growth factor receptor (Homo sapiens), P00533 [L858R,T790M]; settings: at 1 µM
[4] = target: Ephrin type-A receptor 2 (Homo sapiens) (UniProt P29317); settings: at 0.1 µM
Chain of UniProt P29317 (P29317 whole entry): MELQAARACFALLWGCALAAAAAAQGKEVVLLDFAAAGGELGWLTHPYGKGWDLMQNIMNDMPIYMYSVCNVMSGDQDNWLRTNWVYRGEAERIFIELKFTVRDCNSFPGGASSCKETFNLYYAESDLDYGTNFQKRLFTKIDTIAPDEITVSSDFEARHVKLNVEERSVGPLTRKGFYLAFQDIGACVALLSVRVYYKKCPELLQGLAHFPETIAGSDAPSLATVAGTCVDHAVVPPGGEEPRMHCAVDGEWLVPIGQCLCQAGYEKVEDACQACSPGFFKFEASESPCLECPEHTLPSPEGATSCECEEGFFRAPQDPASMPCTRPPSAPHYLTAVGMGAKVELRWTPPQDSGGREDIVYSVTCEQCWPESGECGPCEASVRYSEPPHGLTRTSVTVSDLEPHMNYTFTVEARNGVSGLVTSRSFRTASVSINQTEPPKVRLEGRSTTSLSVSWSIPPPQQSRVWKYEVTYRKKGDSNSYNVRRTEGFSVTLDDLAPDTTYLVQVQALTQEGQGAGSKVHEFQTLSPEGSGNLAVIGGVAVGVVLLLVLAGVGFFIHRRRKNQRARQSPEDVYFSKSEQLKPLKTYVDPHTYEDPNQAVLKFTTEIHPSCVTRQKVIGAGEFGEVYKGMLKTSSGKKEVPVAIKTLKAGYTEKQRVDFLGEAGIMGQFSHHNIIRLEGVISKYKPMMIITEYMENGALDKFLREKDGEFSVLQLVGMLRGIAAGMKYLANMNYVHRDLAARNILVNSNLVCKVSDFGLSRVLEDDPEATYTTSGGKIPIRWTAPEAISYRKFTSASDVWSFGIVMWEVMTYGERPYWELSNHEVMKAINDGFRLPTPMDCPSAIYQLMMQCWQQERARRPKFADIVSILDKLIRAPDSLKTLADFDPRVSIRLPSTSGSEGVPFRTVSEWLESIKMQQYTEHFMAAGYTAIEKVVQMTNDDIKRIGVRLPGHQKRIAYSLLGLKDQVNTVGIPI

[5] = target: Ephrin type-A receptor 2 (Homo sapiens) (UniProt P29317); settings: at 1 µM
[6] = target: T1, Ephrin type-A receptor 3 (Homo sapiens) (UniProt P29320); settings: at 1 µM
T1 sequence (whole entry): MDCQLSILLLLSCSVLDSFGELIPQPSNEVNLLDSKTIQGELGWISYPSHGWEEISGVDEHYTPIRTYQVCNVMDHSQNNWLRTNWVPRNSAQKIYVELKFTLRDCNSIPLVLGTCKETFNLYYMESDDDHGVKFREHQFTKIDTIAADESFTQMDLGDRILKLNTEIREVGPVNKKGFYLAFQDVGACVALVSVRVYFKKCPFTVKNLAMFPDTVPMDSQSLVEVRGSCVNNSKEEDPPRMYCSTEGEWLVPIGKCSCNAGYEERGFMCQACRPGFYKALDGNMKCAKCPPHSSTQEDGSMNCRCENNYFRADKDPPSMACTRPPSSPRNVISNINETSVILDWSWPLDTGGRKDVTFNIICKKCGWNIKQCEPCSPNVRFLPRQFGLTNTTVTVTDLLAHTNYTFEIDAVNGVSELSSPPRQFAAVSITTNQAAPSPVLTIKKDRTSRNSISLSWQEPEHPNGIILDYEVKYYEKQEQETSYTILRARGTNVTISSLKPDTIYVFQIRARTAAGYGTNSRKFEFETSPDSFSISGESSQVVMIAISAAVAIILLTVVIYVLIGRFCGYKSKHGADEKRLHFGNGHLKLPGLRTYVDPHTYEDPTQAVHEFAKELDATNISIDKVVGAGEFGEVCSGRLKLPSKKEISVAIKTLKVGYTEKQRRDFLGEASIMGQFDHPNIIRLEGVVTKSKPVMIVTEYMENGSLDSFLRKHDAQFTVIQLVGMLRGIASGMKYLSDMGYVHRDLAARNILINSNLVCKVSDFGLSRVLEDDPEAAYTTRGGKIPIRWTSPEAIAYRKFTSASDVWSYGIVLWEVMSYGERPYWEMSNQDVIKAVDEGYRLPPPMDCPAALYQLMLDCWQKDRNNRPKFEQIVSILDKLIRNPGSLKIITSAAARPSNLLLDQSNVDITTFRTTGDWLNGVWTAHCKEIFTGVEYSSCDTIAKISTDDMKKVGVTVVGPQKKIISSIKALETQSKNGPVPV

[7] = target: Ephrin type-A receptor 4 (Homo sapiens) (UniProt P54764); settings: at 0.1 µM
Chain of UniProt P54764 (P54764 whole entry): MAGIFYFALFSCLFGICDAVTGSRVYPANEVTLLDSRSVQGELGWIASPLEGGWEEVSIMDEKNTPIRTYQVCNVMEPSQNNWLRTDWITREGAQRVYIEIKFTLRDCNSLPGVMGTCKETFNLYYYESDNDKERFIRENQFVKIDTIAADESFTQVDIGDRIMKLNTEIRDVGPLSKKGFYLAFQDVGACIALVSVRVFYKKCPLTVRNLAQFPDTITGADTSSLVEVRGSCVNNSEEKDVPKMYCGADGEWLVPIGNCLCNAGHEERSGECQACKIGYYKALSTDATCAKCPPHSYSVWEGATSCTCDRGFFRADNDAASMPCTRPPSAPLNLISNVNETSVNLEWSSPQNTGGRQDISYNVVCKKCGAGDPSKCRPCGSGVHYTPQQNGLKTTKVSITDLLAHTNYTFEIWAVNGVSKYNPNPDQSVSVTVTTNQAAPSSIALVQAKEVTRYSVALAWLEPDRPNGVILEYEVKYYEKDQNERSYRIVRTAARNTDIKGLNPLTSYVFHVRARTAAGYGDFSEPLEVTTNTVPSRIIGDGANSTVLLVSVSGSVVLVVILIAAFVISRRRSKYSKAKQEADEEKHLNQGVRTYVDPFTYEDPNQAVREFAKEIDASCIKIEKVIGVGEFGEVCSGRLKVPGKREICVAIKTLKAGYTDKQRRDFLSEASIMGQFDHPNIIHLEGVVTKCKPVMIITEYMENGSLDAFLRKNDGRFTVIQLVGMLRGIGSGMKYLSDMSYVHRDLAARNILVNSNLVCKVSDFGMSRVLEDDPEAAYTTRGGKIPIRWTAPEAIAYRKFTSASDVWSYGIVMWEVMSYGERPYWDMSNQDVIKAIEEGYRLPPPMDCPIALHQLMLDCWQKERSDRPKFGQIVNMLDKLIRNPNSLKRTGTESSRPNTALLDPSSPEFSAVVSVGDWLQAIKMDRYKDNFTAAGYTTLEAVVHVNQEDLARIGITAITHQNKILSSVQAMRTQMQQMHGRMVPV

[8] = target: Ephrin type-A receptor 4 (Homo sapiens) (UniProt P54764); settings: at 1 µM
[9] = target: T2, Ephrin type-B receptor 2 (Homo sapiens) (UniProt P29323); settings: at 0.1 µM
T2 sequence (whole entry): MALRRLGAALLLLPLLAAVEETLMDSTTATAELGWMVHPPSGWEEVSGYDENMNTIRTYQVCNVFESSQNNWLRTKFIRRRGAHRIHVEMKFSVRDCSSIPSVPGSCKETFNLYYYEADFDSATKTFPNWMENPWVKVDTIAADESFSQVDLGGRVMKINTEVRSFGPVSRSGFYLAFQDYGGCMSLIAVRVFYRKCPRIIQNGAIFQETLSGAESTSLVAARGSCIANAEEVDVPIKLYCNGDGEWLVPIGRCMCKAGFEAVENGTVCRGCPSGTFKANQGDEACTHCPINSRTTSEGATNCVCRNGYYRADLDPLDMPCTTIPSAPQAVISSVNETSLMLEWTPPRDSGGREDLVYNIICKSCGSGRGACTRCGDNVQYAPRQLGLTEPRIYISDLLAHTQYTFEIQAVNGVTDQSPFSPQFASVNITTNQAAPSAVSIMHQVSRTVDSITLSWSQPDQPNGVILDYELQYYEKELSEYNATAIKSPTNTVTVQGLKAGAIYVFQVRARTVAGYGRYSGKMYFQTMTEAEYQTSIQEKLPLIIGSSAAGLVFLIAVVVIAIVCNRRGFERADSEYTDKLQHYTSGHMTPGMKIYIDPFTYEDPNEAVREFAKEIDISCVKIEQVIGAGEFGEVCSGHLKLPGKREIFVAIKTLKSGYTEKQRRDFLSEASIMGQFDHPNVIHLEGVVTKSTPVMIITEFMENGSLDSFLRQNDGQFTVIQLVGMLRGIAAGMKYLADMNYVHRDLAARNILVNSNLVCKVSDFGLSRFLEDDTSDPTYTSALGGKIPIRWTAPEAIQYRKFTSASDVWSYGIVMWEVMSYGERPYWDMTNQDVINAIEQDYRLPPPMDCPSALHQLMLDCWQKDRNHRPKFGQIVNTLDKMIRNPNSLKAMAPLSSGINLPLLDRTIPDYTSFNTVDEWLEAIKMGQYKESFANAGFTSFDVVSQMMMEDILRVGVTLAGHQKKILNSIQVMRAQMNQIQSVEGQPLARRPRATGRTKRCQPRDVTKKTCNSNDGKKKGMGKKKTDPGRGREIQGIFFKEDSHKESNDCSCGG

[10] = target: T2, Ephrin type-B receptor 2 (Homo sapiens); settings: at 1 µM
[11] = target: T3, Ephrin type-B receptor 3 (Homo sapiens) (UniProt P54753); settings: at 0.1 µM
T3 sequence (whole entry): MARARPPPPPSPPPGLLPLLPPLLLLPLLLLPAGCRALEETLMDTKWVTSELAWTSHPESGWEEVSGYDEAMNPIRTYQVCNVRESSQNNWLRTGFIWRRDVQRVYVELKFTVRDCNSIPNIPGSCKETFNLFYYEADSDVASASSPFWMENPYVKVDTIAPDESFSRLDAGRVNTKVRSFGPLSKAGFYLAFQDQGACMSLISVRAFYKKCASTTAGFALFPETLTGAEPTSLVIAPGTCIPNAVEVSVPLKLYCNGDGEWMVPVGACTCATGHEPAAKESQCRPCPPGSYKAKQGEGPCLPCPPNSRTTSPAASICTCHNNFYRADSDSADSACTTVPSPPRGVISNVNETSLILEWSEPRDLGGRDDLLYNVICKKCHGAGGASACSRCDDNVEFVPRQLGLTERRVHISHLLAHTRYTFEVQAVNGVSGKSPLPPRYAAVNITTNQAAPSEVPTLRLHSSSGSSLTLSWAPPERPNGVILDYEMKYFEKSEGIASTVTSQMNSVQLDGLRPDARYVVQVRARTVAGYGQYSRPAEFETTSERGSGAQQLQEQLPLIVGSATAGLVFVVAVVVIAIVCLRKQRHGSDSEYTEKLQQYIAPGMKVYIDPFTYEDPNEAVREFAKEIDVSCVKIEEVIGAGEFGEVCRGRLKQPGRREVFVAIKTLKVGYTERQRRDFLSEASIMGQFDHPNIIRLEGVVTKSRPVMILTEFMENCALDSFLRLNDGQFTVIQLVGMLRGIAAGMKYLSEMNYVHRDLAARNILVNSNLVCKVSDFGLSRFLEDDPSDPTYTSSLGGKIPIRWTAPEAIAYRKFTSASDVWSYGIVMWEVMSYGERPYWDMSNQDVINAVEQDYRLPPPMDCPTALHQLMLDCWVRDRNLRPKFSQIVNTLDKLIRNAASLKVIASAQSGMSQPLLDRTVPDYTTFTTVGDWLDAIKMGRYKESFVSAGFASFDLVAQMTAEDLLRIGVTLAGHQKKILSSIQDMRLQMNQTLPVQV

[12] = target: T3, Ephrin type-B receptor 3 (Homo sapiens); settings: at 1 µM
[13] = target: T4, Ephrin type-B receptor 4 (Homo sapiens) (UniProt P54760); settings: at 0.1 µM
T4 sequence (whole entry): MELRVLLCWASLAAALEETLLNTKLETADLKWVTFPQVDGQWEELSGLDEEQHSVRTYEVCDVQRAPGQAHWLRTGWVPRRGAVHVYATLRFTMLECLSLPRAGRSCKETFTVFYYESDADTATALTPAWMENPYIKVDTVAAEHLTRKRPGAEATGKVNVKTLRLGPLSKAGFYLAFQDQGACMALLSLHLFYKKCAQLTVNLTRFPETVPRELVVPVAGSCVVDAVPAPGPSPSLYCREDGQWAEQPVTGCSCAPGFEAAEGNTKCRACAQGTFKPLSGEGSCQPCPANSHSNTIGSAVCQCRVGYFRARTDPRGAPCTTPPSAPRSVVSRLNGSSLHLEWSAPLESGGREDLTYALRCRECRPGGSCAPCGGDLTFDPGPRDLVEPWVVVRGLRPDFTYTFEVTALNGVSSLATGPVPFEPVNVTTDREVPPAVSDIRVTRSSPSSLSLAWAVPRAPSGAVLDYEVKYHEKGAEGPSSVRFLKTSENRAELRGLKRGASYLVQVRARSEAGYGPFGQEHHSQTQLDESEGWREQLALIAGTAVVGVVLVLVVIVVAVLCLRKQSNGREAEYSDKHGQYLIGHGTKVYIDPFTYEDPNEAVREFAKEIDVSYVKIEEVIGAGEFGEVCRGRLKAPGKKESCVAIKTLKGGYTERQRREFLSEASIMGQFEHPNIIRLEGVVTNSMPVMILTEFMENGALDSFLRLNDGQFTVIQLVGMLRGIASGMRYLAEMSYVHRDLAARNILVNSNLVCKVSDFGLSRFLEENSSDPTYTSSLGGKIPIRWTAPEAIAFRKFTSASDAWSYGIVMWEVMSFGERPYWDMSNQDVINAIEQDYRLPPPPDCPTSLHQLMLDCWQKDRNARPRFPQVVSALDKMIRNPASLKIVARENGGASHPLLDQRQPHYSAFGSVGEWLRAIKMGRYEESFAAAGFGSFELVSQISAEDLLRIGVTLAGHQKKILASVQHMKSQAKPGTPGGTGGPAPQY

[14] = target: T4, Ephrin type-B receptor 4 (Homo sapiens); settings: at 1 µM
[15] = target: Receptor tyrosine-protein kinase erbB-2 (Homo sapiens) (UniProt P04626); settings: at 0.1 µM
[16] = target: Receptor tyrosine-protein kinase erbB-2 (Homo sapiens) (UniProt P04626); settings: at 1 µM
[17] = target: Receptor tyrosine-protein kinase erbB-4 (Homo sapiens) (UniProt Q15303); settings: at 0.1 µM
Chain of UniProt Q15303 (Q15303 whole entry): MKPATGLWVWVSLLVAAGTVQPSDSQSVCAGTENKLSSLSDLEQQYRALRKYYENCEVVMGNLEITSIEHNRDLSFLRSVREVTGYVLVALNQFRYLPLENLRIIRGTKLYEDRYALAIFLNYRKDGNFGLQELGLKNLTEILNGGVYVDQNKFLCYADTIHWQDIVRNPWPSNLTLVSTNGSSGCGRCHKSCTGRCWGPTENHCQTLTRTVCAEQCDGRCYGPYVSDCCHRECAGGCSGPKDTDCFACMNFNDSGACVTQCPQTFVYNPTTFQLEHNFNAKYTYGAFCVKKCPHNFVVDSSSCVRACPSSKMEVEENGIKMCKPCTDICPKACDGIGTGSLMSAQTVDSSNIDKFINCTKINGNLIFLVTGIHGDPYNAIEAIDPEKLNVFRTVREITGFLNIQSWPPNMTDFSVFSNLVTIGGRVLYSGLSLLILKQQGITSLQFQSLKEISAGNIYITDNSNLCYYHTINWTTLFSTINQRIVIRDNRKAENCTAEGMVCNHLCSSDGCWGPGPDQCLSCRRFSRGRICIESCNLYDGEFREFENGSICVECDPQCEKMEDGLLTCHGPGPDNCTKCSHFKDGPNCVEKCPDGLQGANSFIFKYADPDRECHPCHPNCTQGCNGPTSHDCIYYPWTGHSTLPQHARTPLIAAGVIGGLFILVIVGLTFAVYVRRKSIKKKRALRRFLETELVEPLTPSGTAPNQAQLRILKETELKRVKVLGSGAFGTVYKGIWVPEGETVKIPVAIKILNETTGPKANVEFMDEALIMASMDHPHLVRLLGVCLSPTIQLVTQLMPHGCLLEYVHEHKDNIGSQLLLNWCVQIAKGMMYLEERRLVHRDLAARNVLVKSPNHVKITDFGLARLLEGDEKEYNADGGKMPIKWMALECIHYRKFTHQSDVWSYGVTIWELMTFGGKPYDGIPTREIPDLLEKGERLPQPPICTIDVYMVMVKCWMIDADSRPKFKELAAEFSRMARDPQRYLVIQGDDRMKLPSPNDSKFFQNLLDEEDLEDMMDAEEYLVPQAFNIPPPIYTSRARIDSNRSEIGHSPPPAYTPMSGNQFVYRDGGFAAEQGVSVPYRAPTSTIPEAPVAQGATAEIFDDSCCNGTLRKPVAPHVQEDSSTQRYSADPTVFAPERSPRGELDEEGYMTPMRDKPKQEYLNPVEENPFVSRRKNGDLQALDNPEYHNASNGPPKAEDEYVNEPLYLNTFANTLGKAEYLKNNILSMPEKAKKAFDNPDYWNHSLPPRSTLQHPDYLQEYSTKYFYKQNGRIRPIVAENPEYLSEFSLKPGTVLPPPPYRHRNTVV

[18] = target: Receptor tyrosine-protein kinase erbB-4 (Homo sapiens) (UniProt Q15303); settings: at 1 µM
[19] = target: Tyrosine-protein kinase Fer (Homo sapiens) (UniProt P16591); settings: at 0.1 µM;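 further: reported figures are averaged percent inhibition of FER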
Chain of UniProt P16591 (P16591 whole entry, looked up): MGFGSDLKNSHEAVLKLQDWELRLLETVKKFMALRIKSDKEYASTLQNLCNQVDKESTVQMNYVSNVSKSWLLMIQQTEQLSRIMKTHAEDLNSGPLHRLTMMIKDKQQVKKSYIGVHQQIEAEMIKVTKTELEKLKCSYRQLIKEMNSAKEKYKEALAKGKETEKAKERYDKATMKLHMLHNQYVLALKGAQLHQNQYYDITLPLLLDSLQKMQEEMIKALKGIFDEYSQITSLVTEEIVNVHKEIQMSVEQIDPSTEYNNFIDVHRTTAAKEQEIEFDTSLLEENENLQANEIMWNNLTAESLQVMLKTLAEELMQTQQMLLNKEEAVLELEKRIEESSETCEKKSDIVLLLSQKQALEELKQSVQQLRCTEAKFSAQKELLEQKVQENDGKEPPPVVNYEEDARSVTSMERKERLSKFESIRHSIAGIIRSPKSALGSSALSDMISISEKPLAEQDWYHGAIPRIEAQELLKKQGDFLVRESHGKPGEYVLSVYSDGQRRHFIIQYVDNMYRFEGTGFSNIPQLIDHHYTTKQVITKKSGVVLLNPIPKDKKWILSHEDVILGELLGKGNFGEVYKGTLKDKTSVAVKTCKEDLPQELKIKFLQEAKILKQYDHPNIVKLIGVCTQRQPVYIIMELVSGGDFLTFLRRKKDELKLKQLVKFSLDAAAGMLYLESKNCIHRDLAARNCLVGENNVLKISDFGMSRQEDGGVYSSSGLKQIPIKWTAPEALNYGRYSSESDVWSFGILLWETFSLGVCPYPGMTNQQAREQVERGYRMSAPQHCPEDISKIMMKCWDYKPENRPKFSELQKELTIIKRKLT

[20] = target: T1, Ephrin type-A receptor 3 (Homo sapiens); settings: at 0.1 µM

| SMILES | inhibition [1] | inhibition [2] | inhibition [3] | inhibition [4] | inhibition [5] | inhibition [6] | inhibition [7] | inhibition [8] | inhibition [9] | inhibition [10] | inhibition [11] | inhibition [12] | inhibition [13] | inhibition [14] | inhibition [15] | inhibition [16] | inhibition [17] | inhibition [18] | inhibition [19] | inhibition [20] |
| --- | --- | --- | --- | --- | --- | --- | --- | --- | --- | --- | --- | --- | --- | --- | --- | --- | --- | --- | --- | --- |
| COc1ccccc1Oc1nccc(-c2c(-c3ccc(F)cc3)ncn2C2CCNCC2)n1 | 1.84% | 2.02% | 0.34% | 0.33% | 0.02% | 5.04% | 7.94% | 11.4% | 9.03% | 7.2% | 4% | 7.2% | 0.68% | 3.62% | 11.4% | 13.4% | 15.5% | 19.1% | 3.88% | – |
| Fc1ccc(Oc2nccc(-c3c(-c4ccc(F)cc4)ncn3C3CCNCC3)n2)cc1 | 2.34% | 4.69% | 2.21% | -1.1% | -1.71% | -0.09% | 6.49% | 8.07% | 7% | 5.49% | -0.03% | -1.49% | 1.62% | -1.46% | -1.05% | 1.8% | -0.45% | 4.24% | 2.06% | -2.65% |
| Fc1ccc(-c2ncn(C3CCNCC3)c2-c2ccnc(Oc3cccc(C(F)(F)F)c3)n2)cc1 | 3.29% | 1.8% | 2.7% | 1.29% | 1.66% | – | 8.26% | 12.2% | 11.9% | 10.6% | 2.85% | 4.25% | 0.96% | 3.51% | – | 5.77% | 10.8% | 14.1% | 3.02% | 5.83% |
| CC(C)(C)c1ccc(Oc2nccc(-c3c(-c4ccc(F)cc4)ncn3C3CCNCC3)n2)cc1 | 3.64% | 2.33% | 1.72% | -1.82% | -2.37% | 3.81% | 7.05% | 9.82% | 8.19% | 9.58% | 3.21% | 3.92% | 3.87% | 2.44% | 5.85% | 5.29% | 10.6% | 14.4% | -1.13% | 2.7% |
| NC(=O)CCc1ccccc1Oc1nccc(-c2c(-c3ccc(F)cc3)ncn2C2CCNCC2)n1 | 0.13% | 1.63% | 1.13% | -3.79% | -2.96% | -7.43% | -8.27% | -5.77% | -3.48% | -1.73% | -5.75% | -2.65% | -1.79% | -1.48% | 0.65% | -0.26% | -3.86% | -2.47% | 1.8% | -7.44% |
| O=C1NC(=O)C(c2ccccc2Cl)=C1Nc1cc(Cl)c(O)c(Cl)c1 | 4.23% | 3.01% | 3.64% | 3.32% | 1.83% | 3.6% | 8.3% | 12% | 6.07% | 8.53% | 3.21% | 2.6% | 1.31% | 0.98% | 1.04% | 5.37% | 7.33% | 9.17% | 2.57% | 1.8% |
| O=C1NC(=O)C(c2cccc([N+](=O)[O-])c2)=C1Nc1cc(Cl)c(O)c(Cl)c1 | -1.04% | 0.58% | -4.23% | 1.65% | -0.45% | 1.24% | 0.6% | 1.76% | – | 0.02% | 1.61% | 3.06% | -0.74% | 1.7% | 0.75% | 2.08% | 3.57% | 9.81% | 1.72% | 2.74% |
